# Measured values published in article PMC4336329 (PLoS ONE, 2015).
# Out of some 310,000 compounds screened, about 14,000 (4.5%) showed an effect of 50% or more. The effect is printed as a negative number. This is one part of the list.
# Target: human ether-à-go-go-related gene (hERG) potassium channel (human, UniProt Q12809)
# Test: primary screen, population patch clamp on CHO cells stably expressing hERG
# 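Also: peak tail current of the secondary pulse compared with the same well before compound.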
# human ether-à-go-go-related gene (hERG) potassium channel, sequence (Q12809 whole entry, looked up): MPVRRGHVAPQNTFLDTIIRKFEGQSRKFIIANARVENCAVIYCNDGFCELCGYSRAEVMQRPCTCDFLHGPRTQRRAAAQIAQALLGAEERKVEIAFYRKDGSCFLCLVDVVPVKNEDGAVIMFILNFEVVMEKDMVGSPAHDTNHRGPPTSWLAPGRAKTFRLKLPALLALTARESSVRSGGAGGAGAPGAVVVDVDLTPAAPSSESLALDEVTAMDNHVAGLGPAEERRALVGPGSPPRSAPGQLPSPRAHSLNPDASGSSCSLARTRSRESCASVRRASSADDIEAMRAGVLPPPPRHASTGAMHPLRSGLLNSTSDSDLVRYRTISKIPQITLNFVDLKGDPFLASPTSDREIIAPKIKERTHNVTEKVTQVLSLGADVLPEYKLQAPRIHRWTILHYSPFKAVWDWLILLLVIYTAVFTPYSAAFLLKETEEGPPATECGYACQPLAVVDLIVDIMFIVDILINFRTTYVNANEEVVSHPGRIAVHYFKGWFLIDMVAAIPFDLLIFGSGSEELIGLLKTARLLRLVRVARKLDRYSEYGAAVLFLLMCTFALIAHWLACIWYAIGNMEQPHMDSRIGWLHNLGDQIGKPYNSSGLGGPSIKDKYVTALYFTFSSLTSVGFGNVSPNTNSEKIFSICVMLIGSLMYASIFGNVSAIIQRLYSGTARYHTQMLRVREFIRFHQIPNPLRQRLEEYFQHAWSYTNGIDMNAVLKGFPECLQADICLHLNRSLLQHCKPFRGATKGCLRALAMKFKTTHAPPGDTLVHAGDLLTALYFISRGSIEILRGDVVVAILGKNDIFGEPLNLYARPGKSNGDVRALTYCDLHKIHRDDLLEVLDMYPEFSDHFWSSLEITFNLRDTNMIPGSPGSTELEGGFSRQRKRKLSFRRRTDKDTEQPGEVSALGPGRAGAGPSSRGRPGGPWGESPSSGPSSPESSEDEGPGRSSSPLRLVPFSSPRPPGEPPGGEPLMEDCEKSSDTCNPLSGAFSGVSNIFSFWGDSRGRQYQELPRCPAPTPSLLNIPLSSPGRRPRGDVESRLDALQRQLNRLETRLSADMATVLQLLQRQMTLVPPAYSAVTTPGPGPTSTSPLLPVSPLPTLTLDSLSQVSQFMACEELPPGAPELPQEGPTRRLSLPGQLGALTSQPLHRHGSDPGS
row,SMILES,"hERG current change (%, negative = inhibition) at 10uM"
1,O=C(Nc1nc(-c2cc3ccccc3o2)cs1)c1ccc(S(=O)(=O)N2CCCC2)cc1,18.3%
2,O=C(c1cc(COc2ccc(F)c(F)c2)on1)N1CCOCC1,5.02%
3,CCOc1ccc(CC(=O)NNC(=S)NC)cc1,10.9%
4,CC(NC(=O)CCNS(=O)(=O)c1ccc2c(c1)oc(=O)n2C)c1ccccc1 (centres unmarked),11.1%
5,Cc1c(NC(=O)/C(C#N)=C/c2c(Oc3ccccc3)nc3ccccn3c2=O)c(=O)n(-c2ccccc2)n1C,5.93%
6,COc1ccc(-c2nnc(N3CCOCC3)c3ccccc23)cc1,-2.78%
7,O=C(NCC(=O)N1CCC(N2CCCCC2)CC1)C1CCCCC1,4.84%
8,Cc1c(CC(=O)O)c(=O)oc2cc3occ(-c4ccc(F)cc4)c3cc12,20.5%
9,CCC(C)N(C(=O)Cn1nnc2ccccc21)C(C(=O)Nc1ccc(F)cc1)c1cccc(OC)c1 (centres unmarked),-18.8%
10,COc1ccccc1OCC(=O)N/N=C1/C=C(C)CC1,-3.82%
11,CSCC[C@H](NC(=O)OC(C)(C)C)c1nnc(SCc2ccc(F)cc2)o1,-46.2%
12,CCOc1ncccc1C(=O)Nc1ccc(S(=O)(=O)Nc2nccs2)cc1,1.52%
13,Cc1ccc(S(=O)(=O)N2CCN(C(=O)CCN3C(=O)c4ccccc4C3=O)CC2)cc1C,-11.4%
14,O=C(Nc1ccc2ccccc2n1)c1ccccc1Br,9.14%
15,CCc1cc2cc(OC)ccc2nc1SCC(=O)Nc1cc(OC)c(OC)cc1C(=O)O,-9.97%
16,COCc1cc(C)[nH]c(=O)c1C(=O)NC12CC3CC(CC(C3)C1)C2,22.8%
17,Cc1ccc(C(C)(O)CS(=O)(=O)Cc2ccccc2)cc1 (centres unmarked),10.5%
18,Cc1ccc(CSCC(=O)Nc2cc(S(=O)(=O)N3CCOCC3)ccc2OC(C)C)cc1,-30.5%
19,Cc1cc(C(F)(F)F)c2c(C)nn(-c3ccccc3)c2n1,5.56%
20,CCCc1cc(=O)oc2cc(C)cc(OC(C)C(=O)NCc3ccccn3)c12 (centres unmarked),-8.3%
21,COC(=O)c1cccc(N(C(=O)c2ccco2)C(C(=O)NC2CCCC2)c2ccco2)c1 (centres unmarked),-14.7%
22,COc1ccc([C@H]2CC(=O)C=C(c3ccccc3)C2)cc1,-6.86%

row,SMILES,"hERG current change (%, negative = inhibition) at 10uM"
1,Cc1cc(Oc2ccccc2)nc(NCc2ccccc2)n1,-9.99%
2,O=C(Nc1ccccc1N1CCCC1)c1ccc(Br)o1,-22.4%
3,CCCCNC(=O)CC1Nc2ccccc2NC1=O (centres unmarked),1.17%
4,CC/C(C)=N/Nc1nc(-c2cc3cccc(OC)c3oc2=O)cs1,8.59%
5,CC(C)CCC(C(=O)O)C(C)CC(=O)Nc1ccn(-c2ccccc2)n1 (centres unmarked),14.6%
6,COc1cc(NC(=O)c2cccnc2SC)cc(OC)c1OC,13.2%
7,COc1ccc(OC)c(/C=N/NC(=O)c2ccncc2)c1,12.2%
8,NC(=O)c1ccc[n+]([C@H]2O[C@@H](COP(=O)([O-])OP(=O)(O)OC[C@H]3O[C@@H](n4cnc5c(N)ncnc54)[C@H](O)[C@@H]3O)[C@H](O)[C@@H]2O)c1,12.1%
9,O=C(NN=C1CCCC1)c1cc(O)cc(O)c1,11.6%
10,COc1ccc(-c2cc(C(F)(F)F)n3nc(C(=O)O)nc3n2)cc1,18.9%
11,CC(C)[C@@H]1NC(=O)c2cc([N+](=O)[O-])cc(I)c2NCCC[C@@H](C(=O)NC(CC(=O)O)C(N)=O)NC(=O)[C@H](CO)NC1=O (some centres unmarked),-23%
12,COc1ccc(C(=O)NC2(C(F)(F)F)NC(=O)N(CCCc3ccccc3)C2=O)c(OC)c1OC (centres unmarked),-3.76%
13,Cc1nccn1Cc1ccccc1,25.1%
14,CN(c1ccccc1)S(=O)(=O)c1ccc(C(=O)NNC(=O)c2ccccc2)cc1,2.19%
15,CC(C)OC(=O)NCCOC(=O)Nc1ccccc1Cl,21.6%
16,CCN(C(=O)c1cc(S(=O)(=O)N2CCCC2)ccc1C)C1CCS(=O)(=O)C1 (centres unmarked),0.93%
17,CCN(CC)S(=O)(=O)c1cc(NC(=O)c2cccc(N3C(=O)CCC3=O)c2)ccc1Cl,-29.3%
18,Cc1nc(SCC(=O)Nc2ccc(OCc3ccccc3)cc2)n[nH]1,9.02%
19,O=C1NC(=O)/C(=C/c2ccccc2Cl)N1,13.2%
20,O=C1NC(=O)C(c2ccccc2)(c2ccc(O)cc2)N1 (centres unmarked),-7.98%
21,O=C(NC(=O)c1ccccc1)Nc1ccccc1,17%
22,COC(=O)c1c(C(=O)OC)c2oc3ccccc3n2c1Cl,-15.3%

row,SMILES,"hERG current change (%, negative = inhibition) at 10uM"
1,CC(=O)OCn1nnc2ccccc2c1=O,11.5%
2,CN1CCCC(C(=O)c2ccc(-c3ccccc3)cc2)C1 (centres unmarked),-25.9%
3,CN(C)NC(=O)c1csnc1-c1c(Cl)cccc1Cl,18.8%
4,Cc1c(C(=O)N2CCCC(C(F)(F)F)C2)oc2ccccc12 (centres unmarked),-17.2%
5,O=C(NCc1cccc(Br)c1)C1CC(c2cc(C(F)(F)F)cc(C(F)(F)F)c2)=NO1 (centres unmarked),-1.53%
6,Cn1c(C(F)(F)F)nc2c(=O)oc3ccccc3c21,-7.65%
7,Cc1ccc(NC(=O)CSc2nc(N)c(-c3ccccc3)c(=O)[nH]2)cc1Cl,22.9%
8,Cc1cc(C)cc(N2CCN(C(=O)N3CCOCC3)CC2)c1,10.4%
9,Cc1ccc(SC/C(O)=C(\C#N)c2nc3ccccc3n2C)cc1,6.24%
10,Cc1ccc(-c2n[nH]c(=S)n2Cc2ccccc2)cc1,-1.34%
11,OCCN1CCN(Cc2nc(-c3cccc(Cl)c3)no2)CC1,-11.6%
12,COn1c(C)c(C(C)=O)c2c3nonc3ccc21,4.6%
13,COc1cc(/C(=C/c2ccccc2)c2ccccc2)c2c(c1)oc1ccccc12,11%
14,CC(=O)Nc1cccc(Oc2nc(-c3ccccn3)nc3ccccc23)c1,7.44%
15,Cc1ccc(-c2cc(C(=O)N3CCCC(C(F)(F)F)C3)c3ccccc3n2)o1 (centres unmarked),-29.8%
16,Cc1cccc(NC(=O)c2ccc(S(=O)(=O)N3CCOCC3)cc2)c1C,15.6%
17,CCOc1ccc(NC(=O)CN2C(=O)NC3(CCCC3)C2=O)cc1S(=O)(=O)N1CCCCC1,12.1%
18,COc1ccccc1NC(=O)C(=O)NCC(c1ccco1)N1CCc2ccccc2C1 (centres unmarked),11.1%
19,O=C1CC(c2ccccc2)NN1 (centres unmarked),29.4%
20,CC(=N[C@@H]1CCCC[C@H]1N=C(C)c1ccccc1O)c1ccccc1O,6.21%
21,Cl.O=C(O)CN1CCCCC1,7.87%
22,CC(=O)Nc1cc(C(C)C)c(O)c(C(C)C)c1,-4.37%

row,SMILES,"hERG current change (%, negative = inhibition) at 10uM"
1,CCOc1cccc(/C=C/C(=O)O)c1,14.6%
2,COc1ccc2c(C)cc(SCC(=O)N(C)C3CCS(=O)(=O)C3)nc2c1 (centres unmarked),-14%
3,COc1ccc(Cn2c(=O)[nH]c3cc(C(=O)NCCCOC(C)C)ccc3c2=O)cc1,-4.13%
4,COc1ccc(-n2c(SCC(=O)N3CCCC3)nc3ccccc3c2=O)cc1,16%
5,Cc1cc(NC(=O)C2CC2)ncc1NC(=O)c1ccccn1,21.7%
6,O=C(COc1ccccc1)N(Cc1ccccc1)c1nc(-c2ccccc2)cs1,3.43%
7,CN(C)S(=O)(=O)c1cc(NC(=O)CSc2cccc[n+]2[O-])ccc1Cl,9.64%
8,C#CCOCCOCCOCCNc1nc(N2CCN(C(=O)[C@H](CCC(=O)O)n3cc(C(N)Cc4ccc(O)cc4)nn3)CC2)nc(N2CCN(C(=O)[C@H](Cc3cc4ccccc4[nH]3)n3cc(C(N)[C@H](C)CC)nn3)CC2)n1.Cl (some centres unmarked),5.43%
9,CCc1cc(=O)oc2c3c(cc(OCC(=O)NCc4cccnc4)c12)OC(C)(C)CC3,-32.9%
10,COc1ccc(CN2CCNC(=O)C2CC(=O)N(C)CCC2CCOCC2)cc1OC (centres unmarked),21.7%
11,Nc1ccc2c(c1)Cc1ccccc1-2,-2.79%
12,O=C(O)C1CCCCC1C(=O)N1CCCC1 (centres unmarked),19%
13,CC(=O)c1ccc(-n2nnnc2SCC(=O)Nc2sc(C)c(C)c2C#N)cc1,2.43%
14,CCOc1ccc(C(=O)NCc2cccnc2)cc1[N+](=O)[O-],-76%
15,CCOC(=O)c1ccccc1NC(=O)Cc1sc(-c2cccnc2)nc1-c1ccc(C)cc1,12.7%
16,Cc1nc2sc(C(c3ccco3)N3CCN(C(c4ccccc4)c4ccccc4)CC3)c(O)n2n1 (centres unmarked),-2.18%
17,N#C/C(=C/c1ccc(O)c(O)c1)c1nc2ccccc2[nH]1,16.3%
18,COc1cc(OC)cc(-c2nc3ccccc3c(=O)n2NC(=O)c2cccnc2Cl)c1,21.5%
19,Cc1[nH]nc(SCC(=O)N2CCCCCC2)c1[N+](=O)[O-],3.4%
20,O=C(NCc1ccccc1)c1ccc(Oc2ccc(C(=O)NCc3ccccc3)cc2)cc1,-3.44%
